# Measurements reported in PMC6919601, “Identification of Plasmodium dipeptidyl aminopeptidase allosteric inhibitors by high throughput screening” (PLoS ONE, 2019).
# Values joined by “and” are separate entries in the source; they are usually repeats but may differ in a detail not shown here. Equal values may be shown once. Out of some 110,000 compounds screened, about 230 (0.21%) showed an effect of 50% or more. The list shows a part of the results.
# Target: DPAP1 (Plasmodium falciparum, UniProt Q8IIJ9)
# Test: primary screen, percent inhibition; read by cleavage of a fluorogenic dipeptide substrate; higher = more effect of the substance
# Design: species or system P. falciparum D10 trophozoite lysates; single well
# 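Note: 30 min substrate incubation versus DMSO and 10 µM JCP410 controls.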
# DPAP1, sequence (Q8IIJ9 whole entry, looked up): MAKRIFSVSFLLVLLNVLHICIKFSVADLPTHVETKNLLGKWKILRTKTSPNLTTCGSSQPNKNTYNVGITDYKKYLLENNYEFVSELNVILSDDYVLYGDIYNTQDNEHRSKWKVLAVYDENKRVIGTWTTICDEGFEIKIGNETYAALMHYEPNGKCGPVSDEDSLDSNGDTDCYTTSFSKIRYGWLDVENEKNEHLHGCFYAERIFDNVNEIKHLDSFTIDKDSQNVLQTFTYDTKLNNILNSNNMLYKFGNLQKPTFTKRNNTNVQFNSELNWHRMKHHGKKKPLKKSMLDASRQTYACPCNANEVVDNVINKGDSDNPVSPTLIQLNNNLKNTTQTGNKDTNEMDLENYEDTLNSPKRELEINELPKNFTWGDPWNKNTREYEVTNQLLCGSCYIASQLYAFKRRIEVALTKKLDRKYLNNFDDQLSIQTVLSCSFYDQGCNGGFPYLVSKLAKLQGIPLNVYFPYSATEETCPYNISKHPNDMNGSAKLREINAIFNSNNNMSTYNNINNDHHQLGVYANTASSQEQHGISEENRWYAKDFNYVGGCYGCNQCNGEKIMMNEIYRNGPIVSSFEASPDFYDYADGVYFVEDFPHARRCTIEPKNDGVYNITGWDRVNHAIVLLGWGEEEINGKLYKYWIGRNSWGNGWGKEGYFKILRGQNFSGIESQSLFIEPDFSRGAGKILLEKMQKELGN
row,Compound,% Inhibition @ 10 uM
1,CC(C)C[C@H](NC(=O)c1ccc(C(C)C)cc1)C(=O)NCC#N,-1.5%
2,c1ccc(COc2cccc(CNCc3cccs3)c2)cc1,-5.32%
3,CC(NC(=O)CCC(=O)n1ncc2ccc(Cl)cc21)c1ccccc1 (centres unmarked),3.84%
4,CN(CCCNC(=O)CCn1c(=O)c2cccn2c2cccnc21)C1CCCCC1,2.83%
5,CCn1c2ccccc2c2cc(CNC3CCCc4ccccc43)ccc21 (centres unmarked),-3.74%
6,Cc1nc2ccc(S(=O)(=O)NCC(=O)N3CCOCC3)cc2s1,4.14%
7,Cc1nc2c(cc1C(=O)/C=C/c1cccc3ccccc13)CCCC2,1.08%
8,CCN1CCN(c2nc(-c3ccc(C(C)(C)C)cc3)nc3ccccc23)CC1,-4.93%
9,Cc1ccccc1Oc1cc(-n2ncc(C(N)=O)c2N)ncn1,1.92%
10,C/C(=C(/NC(=O)c1ccccc1)C(=O)NCc1ccccc1)c1ccccc1,-4.67%
11,CS(=O)(=O)N(CC(O)Cn1c2ccccc2c2ccccc21)c1ccc(Cl)cc1 (centres unmarked),-2.74%
12,CSc1nc2ccccc2c(=O)n1Cc1ccccc1,-2.94%
13,CN1CCN(C(=O)CCCc2cn(Cc3ccc(F)cc3)c3ccccc23)CC1,-8.65%
14,COc1ccc(NC(=O)/C(=C\c2ccccc2OC)NC(=O)c2ccccc2)cc1,-2.89%
15,CCC(C(=O)O)N1C(=O)c2ccccc2C1O (centres unmarked),-1.03%
16,COc1ccc(C(=O)c2sc3nc(C)cc(C)c3c2N)cc1,0.751%
17,CCCCNC(=O)Cn1ncc2c(C)n(Cc3ccccc3F)c(C)c2c1=O,-2.17%
18,CCC(C)c1ccc(NC(=O)Cn2nc(C(F)F)cc2C)cc1 (centres unmarked),12.1%
19,COc1ccccc1N1C(=O)C2CCC(c3ccccc3)CC2C1=O (centres unmarked),-5.83%
20,O=C(Nc1ccc(Oc2ccccc2)cc1)c1cccs1,-0.0953%
21,C=CCOc1ccc(/C=C2\SC(NC(=O)c3ccc(C)cc3)=C(C(=O)OCC)C2=O)cc1OC,4.74%
22,Cc1cccc(CCNC(=O)c2noc3c2COc2ccccc2-3)c1,75.2%
23,Cc1ccc(NS(=O)(=O)c2cc(C(=O)Nc3ccccc3C(=O)O)ccc2Br)cc1,5.63%
24,COc1cc(OC)c(/C=C2\S/C(=N/c3ccc(C(=O)O)cc3)N(C)C2=O)cc1Br,9.67%
25,COc1cccc(C2CC(=O)NC(SCC(=O)NC3CCCCC3)=C2C#N)c1OC (centres unmarked),0.343%
26,COc1ccc(-n2ncc(C(=O)NCCN3CCCC3)c2C2CCN(C(=O)OC(C)(C)C)CC2)cc1,-4.41%

row,Compound,% Inhibition @ 10 uM
1,O=c1c2ccccc2c2ccccc2c(=O)n1-c1ccc2c(c1)OCO2,-5.4%
2,COc1cc(C(=O)N2CCN(C(=O)c3cc(-c4ccccc4)[nH]n3)CC2)cc(OC)c1OC,1.51%
3,COc1ccc(-c2nnc(SCC(=O)O)n2-c2cccc(C(F)(F)F)c2)cc1OC,-5.76%
4,NS(=O)(=O)c1ccc(NC(=O)COc2ccc(Cl)cc2)cc1,2.17%
5,COc1ccc(CC(=O)N2CCN(Cc3noc(CCC(=O)N(C)Cc4ccccc4)n3)CC2)cc1,-2.18%
6,COCc1cc(C)nc(SCC(=O)NCc2ccc(Cl)cc2)c1C#N,-5.53%
7,Cc1[nH]c(O)nc1CN1CCCCC1,2.39%
8,CCOC(=O)N1CCC(NCC2CCCO2)CC1 (centres unmarked),1.88%
9,O=C(/C=C/c1ccccc1Cl)c1cccnc1,-5.32%
10,O=C(CCC(=O)n1ncc2ccc(Cl)cc21)NCC1CCCO1 (centres unmarked),-4.94%
11,COc1cccc2c1OC(c1cccc(OC)c1OC)N1N=C(c3ccccc3O)CC21 (centres unmarked),0.0719%
12,CCCCC(NC(=O)[C@H](CC(C)C)NC(=O)OCc1ccccc1)C(=O)c1nnc(-c2cccnc2)o1 (some centres unmarked),-3.48%
13,CC(=O)Nc1cccc(NC(=O)C2c3ccccc3Oc3ccccc32)c1,-5.14%
14,N#CC1=C(N)OC2=C(C(=O)CCC2)C12C(=O)Nc1ccccc12 (centres unmarked),-3.78%
15,COc1ccccc1CNC(=O)c1ccc(N(Cc2ccccc2Cl)S(C)(=O)=O)cc1,18.7%
16,COc1ccc(-n2c(C)cc(/C=C(/C#N)C(=O)Nc3ccc(Cl)cc3)c2C)cc1,-6.22%
17,Nc1ccc(-c2nc3cc(N)ccc3[nH]2)cc1,-1.86% and 1.13%
18,O=C1C=C(N(CCO)CCO)C2(CCCCC2)O1,-2.47%
19,CC(=O)N1CCN(c2cc(N3CCCCC3)c(F)cc2[N+](=O)[O-])CC1,2.05%
20,O=C(Nc1ccc(S(=O)(=O)Nc2nccs2)cc1)c1ccco1,0.851%
21,C/C=C(\C)CC(NC(=O)OCc1ccccc1)C(=O)NCC#N (centres unmarked),-4.93%
22,CC(C)CCn1nnc2sc3c(c2c1=O)CCC(C)C3 (centres unmarked),-6.78%
23,CCOC(=O)c1nnn(-c2nonc2N)c1CN1CCN(CCO)CC1,-1.6%
24,O=C(O)CCc1ccc(-c2ccc(O)cc2)cc1,2.13%
25,Cc1ccc(S(=O)(=O)N(CC(=O)N(C)C)c2cc(Cl)ccc2C)cc1,1.57%
26,O=C(c1ccccc1)N1CC(=O)N(OCc2ccccc2)C1c1cccs1 (centres unmarked),-0.597%

row,Compound,% Inhibition @ 10 uM
1,Cc1cccc(N2CCN(C(=O)NC3CCCCC3)CC2)c1C,-1.88%
2,COc1ccc(-c2c3c(nc4sc(C(C)=O)c(N)c24)CCCC3)cc1,5.18%
3,O=S(=O)(NC1CCCCCC1)c1ccc(Cl)cc1,-2.6%
4,COc1ccc(NC(=O)c2ccc(C#N)cc2F)cc1,1.89%
5,O=C(NCCCN1CCCCC1)C1CCN(S(=O)(=O)N2CCC3(CC2)OCCO3)CC1,-4.83%
6,O=C(Cn1cc(SCc2c(F)cccc2Cl)c2ccccc21)N1CCOCC1,5.27%
7,COc1cc(C(=O)Nc2cc(OC)c(OC)c(OC)c2)ccc1OC(F)F,2.4%
8,CCOC(=O)Nc1cc(=O)c2cc(C)ccc2o1,-6.2%
9,CC(=O)Nc1ccc(NS(=O)(=O)c2ccc(F)cc2)cc1,2.7%
10,CCOc1ccc(-c2csc(-c3ccccn3)n2)cc1,2.62%
11,O=C(COc1cc(Cl)ccc1Cl)Nc1nc[nH]n1,1.58%
12,COc1ccccc1C(=O)NCc1cccs1,-1.61%
13,CNC(=O)c1oc2ccc3c(c2c1C)C(=O)CC1(CCCCC1)O3,2.27%
14,Cc1ccc(Oc2coc3cc(OCC(=O)Nc4ccccc4)ccc3c2=O)cc1,3.04%
15,C/C(=N\c1cccc2ccccc12)C1=C(O)CC(c2ccccc2)CC1=O (centres unmarked),0.746%
16,O=c1c(-c2ccc3c(c2)OCCO3)coc2c(CN3CCCCC3)c(O)ccc12,-1.82%
17,Cc1cc[n+](CC(=O)N2CCCCC2)c(C)c1,-3.19%
18,COc1ccccc1CNC(=O)CCCCn1c(=O)[nH]c2ccsc2c1=O,1.23%
19,O=C(NCc1ccc2c(c1)OCO2)c1cc(-c2ccc(Cl)cc2)n[nH]1,5.45%
20,CCOc1ccc(-c2cn(-c3ccccc3F)c(S)n2)cc1,56.2%
21,COC(=O)c1ccc(NC(=O)c2cc(OC)c(OC)c(OC)c2)cc1,-6.82%
22,CC1CCN(S(=O)(=O)N2CCC(C(=O)NCCN3CCCCCC3)CC2)CC1,0.387%
23,O=C(CC(c1cccs1)N1Cc2ccccc2C1=O)N1CCN(C(=O)c2ccco2)CC1 (centres unmarked),-0.943%
24,c1ccc2[nH]c(SCCN3CCCC3)nc2c1,-5.92%
25,CCC1(c2ccccc2)C(=O)N(C)C(=O)N(C)C1=O,4.41%
26,CCn1cc(CCC(=O)NCc2cc(Br)ccc2OC)c2ccccc21,-1.11%

row,Compound,% Inhibition @ 10 uM
1,COc1ccc(NC(=O)COc2nc(N(C)C)nc(N(C)C)n2)cc1,0.365%
2,CN1CCN(C2=Cc3ccccc3Sc3ccccc32)CC1,0.843%
3,CS(=O)(=O)c1nc(S(=O)(=O)c2ccc(Cl)cc2)c(N2CCC(C(N)=O)CC2)s1,0.942%
4,CN1C(=O)C(O)(CC(=O)c2cccc(Br)c2)c2ccccc21 (centres unmarked),1.72%
5,CCC(Sc1nnc2c(n1)[nH]c1ccccc12)C(=O)Nc1nc2ccccc2s1 (centres unmarked),-6.6%
6,C=CCN1C(=O)N/C(=C/c2ccc(OC)c(OCC)c2)C1=O,-3.41%
7,COC(=O)c1cnn2c1NCN(CCN1CCc3ccccc3C1)C2,-2.88%
8,Fc1ccc(NC2CN3CCC2CC3)cc1Cl (centres unmarked),1.42%
9,CC(NC(=O)c1cc(O)nc2ccc(Br)cc12)c1ccc2c(c1)OCCO2 (centres unmarked),4.81%
10,c1cc(CNC2C3CC4CC(C3)CC2C4)ccn1 (centres unmarked),8%
11,CC(NC(=O)C1CCN(c2nnc(N3CCCC3=O)s2)CC1)c1ccccc1 (centres unmarked),-4.68%
12,C#CC(C)(CC)NC(=O)CSc1nnnn1-c1ccc(Cl)cc1 (centres unmarked),-0.403%
13,CC(=O)N1CC[C@@]2(O)CCCC[C@@H]2[C@H]1c1cccc(Br)c1,4.26%
14,CC(=O)c1ccc2c(c1)Nc1ccccc1S2,-0.872%
15,O=C(CN1CCN(Cc2cccc(Cl)c2)C1=O)N1CCCC1,-2.41%
16,CCn1c2ccccc2c2cc(CN3CCCCCC3)ccc21,1.48%
17,CC1CC(C)CN(C(=O)COc2ccc(Cl)cc2)C1 (centres unmarked),0.727%
18,CCc1ccc(N2C(=O)CC(N(CCc3ccccc3Cl)C(C)=O)C2=O)cc1 (centres unmarked),-2.83%
19,O=C(O)CSc1cccc(C(=O)Nc2ccc(Br)cc2)c1,3.25%
20,Cn1c2ccccc2c2cnn(CC(=O)NCCCN3CCc4ccccc4C3)c(=O)c21,-0.439%
21,CC(=O)c1ccc(NC(=O)c2ccc(C)c(Br)c2)cc1,-1.61%
22,CCc1nn(CC(=O)NCCN2CCN(C)CC2)c(=O)c2cc3sccc3n12,1.59%
23,O=C(c1cc(F)c(F)cc1Cl)N1CCCCC1,0.00178%
